# Source: PubChem BioAssay AID1347120 (National Center for Advancing Translational Sciences (NCATS), 2019)
# In all, about 390,000 compounds went through this assay and about 930 (0.24%) were called active. The shares of active, inactive and inconclusive entries below differ from those in the screen. Calls follow the shape of the dose curve; as a rule, active = well fitted activation curve with a large enough effect; inconclusive = small, poorly fitted or top-dose-only effect; inactive = no such curve, though single readings can be large or run the other way. A potency beside an inconclusive call is a rough fit, not a confirmed value.
# Experiment: qHTS for Suppressors of FUS Proteinopathy: Primary screen using FUS-linked yeast assay; also: nearly all actives have a fitted effect of over 55% in size;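 as to growth rescue (activation): plate controls were DMSO vehicle for no effect and reference control for full effect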
# Conditions: S. cerevisiae FUS-expressing, OD600, 24 h; Potency: growth rescue; growth rescue (activation): at 76.6 µM (top of the series)
# Method in brief: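 Cultures pregrown in 2.5% raffinose medium are shifted to minimal medium containing 2% galactose to express toxic FUS. Compounds are tested at several concentrations. After 24hr at 30C, growth is quantified at 600 nm absorbance.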
# Potency is read from the fitted curve at half-maximal effect; tags tell the direction and shape of the fitted curve.
Structure (SMILES),Potency,growth rescue (activation)
COc1ccc(/C=C(/NC(=O)c2ccc(C)cc2)c2nc3ccccc3[nH]2)cc1OC,"inconclusive: 39.8 µM [activator, partial curve, poor fit]",
Cc1ccc(-c2nnc(Nc3cccc(Cl)c3)c3ccccc23)cc1S(=O)(=O)NCC1CCCO1 (stereo unspecified),"inconclusive: 35.5 µM [activator, partial curve, poor fit]",
O=C(/C=C/c1ccc(Cl)c([N+](=O)[O-])c1)Nc1ccc(N2CCCC2)cc1,"inconclusive: 12.6 µM [activator, partial curve]",
COc1cccc(CN(Cc2ccco2)c2cnc(S(C)(=O)=O)nc2C(=O)Nc2cccc(Cl)c2C)c1,inactive,
CCOC(=O)C1=C(C)Nc2sc(C(=O)c3ccc(Br)cc3)c(N)c2C1c1ccc(C(=O)OC)cc1 (stereo unspecified),active: 31.6 µM,
Cc1nn(-c2ccccc2)c(C)c1/C=N\NC(=O)CSc1nc2ccccc2n1Cc1ccc(Cl)cc1,"inconclusive: 20 µM [activator, partial curve, poor fit]",
COc1ccc(Cn2nnnc2C(c2cc3cc(C)ccc3[nH]c2=O)N2CCOCC2)cc1 (stereo unspecified),inactive,
O=C(CC1CCCC1)Nc1ccc(Cl)c(S(=O)(=O)N2CCOCC2)c1,inactive,
O=C(O)c1cccc(-c2ccc(/C=c3/sc4nc5ccccc5n4c3=O)o2)c1,inactive,
CCCN(C(=O)c1cc(S(=O)(=O)N2CCCCC2)ccc1Cl)C1CCS(=O)(=O)C1 (stereo unspecified),inactive,
C[C@@H](C(=O)Nc1ccc2c(c1)OCO2)n1c(=O)[nH]c2ccccc2c1=O,"inconclusive: 12.6 µM [activator, partial curve, poor fit]",
Cc1ccc(-n2ncc(C(=O)NC3CCCC3)c2C2CCN(C(=O)OC(C)(C)C)CC2)c(C)c1,inactive,
Cc1ccccc1NC(=S)NNC(=O)c1csc2c1CCC(C)C2 (stereo unspecified),"inconclusive: 25.1 µM [activator, single point]",
Cc1ccc(C23CC4CC(CC(C(=O)OCC(=O)N(C)C)(C4)C2)C3)cc1,"inconclusive: 35.5 µM [activator, single point]",
COc1ccc(-c2cc(NC=O)c3ncc(-c4cccc(OC)c4)n3c2)cc1,inactive,
O=C(C1=C(O)C(=O)N(CC2CCCO2)C1c1ccccc1)c1ccco1 (stereo unspecified),inactive,
COCCCNC(=O)c1cc2n(n1)CCCN(Cc1ccc(C)cc1)C2=O,inactive,
COC(=O)[C@]12CCCCC=C1N(CCC1=CCCCC1)C(=O)[C@H](CC(=O)N1CCC(c3ccccc3)CC1)C2,"inconclusive: 35.5 µM [activator, single point]",
Cc1cccc(NC(=O)C2CCN(S(=O)(=O)c3c(C)c(C)cc(C)c3C)CC2)n1,"inconclusive: 25.1 µM [activator, partial curve, poor fit]",
COc1ccc(CCNC(=O)CSc2ncn[nH]2)cc1,,inconclusive: 12.7% [activator]
Cc1cccc(N2CCN(C(=O)CCC(=O)N3CC(C)Oc4ccccc43)CC2)c1C (stereo unspecified),"inconclusive: 7.94 µM [activator, partial curve, poor fit]",

Structure (SMILES),Potency,growth rescue (activation)
CCCC(=O)NC(c1ccccc1OC)c1ccc2cccnc2c1O (stereo unspecified),"inconclusive: 31.6 µM [activator, single point]",
Cc1nn(C)c(Cl)c1S(=O)(=O)N[C@@H](c1ccccc1)[C@]1(C)C[C@H]1[C@@H](C)C(=O)Nc1ccc2ccccc2c1,"inconclusive: 25.1 µM [activator, single point]",
Cc1cc(OCC(=O)N2CCc3ccccc3C2)c2c(-c3ccccc3)cc(=O)oc2c1,"inconclusive: 28.2 µM [activator, partial curve, poor fit]",
Cc1nc2ccc(C(=O)N3CCN(C(=O)OCc4ccccc4)CC3)cc2n1C1CCCC1,inactive,
COC(=O)[C@@]12CCCCC3=C1N(CCC3)C(=O)[C@H]2CC(=O)N1CCC(c2ccccc2)CC1,"inconclusive: 31.6 µM [activator, single point]",
COc1ccc(-c2nc(C(=O)Nc3cccc(C(C)=O)c3)nn2-c2ccc(Cl)cc2)cc1,"inconclusive: 28.2 µM [activator, partial curve, poor fit]",
Cc1ccc(NC(=O)CS(=O)(=O)c2nc(-c3ccc(C)cc3)cn2-c2ccc(C)cc2)cc1,"inconclusive: 28.2 µM [activator, single point]",
CC(C(=O)N1CCc2ccccc21)N1CCN(S(=O)(=O)c2ccc3c(c2)OCCCO3)CC1 (stereo unspecified),inactive,
COC(=O)c1cccc(N2C(=O)C[C@](Sc3ccc(OC)cc3)(C(=O)N3CCOCC3)[C@H]2c2ccc(OC)cc2)c1,"inconclusive: 25.1 µM [activator, partial curve, poor fit]",
CCOC(=O)CSc1nnc(-c2cccs2)n1-c1ccccc1,inactive,
CCOc1ccc(-n2c(SCC(=O)Nc3cccc4ccccc34)nnc2-c2cccs2)cc1,"inconclusive: 28.2 µM [activator, partial curve, poor fit]",
Cc1cccc([C@@H]2[C@@H]3C(=O)N(Cc4ccccc4)C(=O)[C@@H]3[C@]3(C)C(=O)N(c4ccc(C(F)(F)F)cc4)C(=O)N23)c1,"inconclusive: 12.6 µM [activator, partial curve]",
COc1ccc(N2CCN(C(=O)c3cn(C4CCCC4)c(=O)c4c3c3ccccc3n4C)CC2)cc1,"inconclusive: 10 µM [activator, full curve]",
COc1ccc(-c2noc(N3CCC(C(=O)N(C)c4ccccc4C)CC3)n2)cc1,"inconclusive: 28.2 µM [activator, partial curve]",
CCOc1ccccc1NC(=O)CN1C(=O)CC(c2ccco2)Sc2ccccc21 (stereo unspecified),inactive,
Cc1cc(NC(=O)CCCn2c(C)c3cnn(-c4ccccc4)c(=O)c3c2C)ccc1Br,"inconclusive: 39.8 µM [activator, single point]",
CCc1ccccc1N(CC)C(=O)C(=O)Nc1ccc2nc3n(c(=O)c2c1)CCCCC3,inactive,
CCCCCn1c(=N)c(S(=O)(=O)c2ccc(C)cc2)cc2c(=O)n3cc(C)ccc3nc21,"inconclusive: 11.2 µM [activator, single point]",
O=C(Nc1ccc(S(=O)(=O)N2CCCC2)cc1)c1ccc(OCC2CCCO2)cc1 (stereo unspecified),"inconclusive: 12.6 µM [activator, partial curve, poor fit]",
COc1ccc(S(=O)(=O)c2cc3cc(C(C)(C)C)cc(O)c3oc2=O)cc1,active: 39.8 µM,
Cc1ccsc1C(=O)Nc1cc(Cl)ccc1-n1cncn1,inactive,

Structure (SMILES),Potency,growth rescue (activation)
CN(C)c1ccc(/C=C/c2nc3ccccc3c(=O)n2-c2ccc(C(=O)O)cc2)cc1,"inconclusive: 35.5 µM [activator, single point]",
COc1ccc2c(c1)CN1CN(Cc3ccccc3)S(=O)(=O)CC21 (stereo unspecified),inactive,
N=C1SCC(=O)N1c1ncc(Cc2cccc(Cl)c2)s1,inactive,
O=C(O)c1ccccc1NS(=O)(=O)c1ccc(NNC(=S)Nc2ccc(OC(F)F)cc2)c([N+](=O)[O-])c1,"inconclusive: 3.55 µM [activator, full curve, poor fit]",
CCCCNC(=O)c1nc(C2CCN(S(=O)(=O)c3ccc(S(C)(=O)=O)cc3)CC2)oc1-c1ccccc1,"inconclusive: 12.6 µM [activator, partial curve, poor fit]",
Cc1cccc(-n2nc(C)c3c2NC2=C(C(=O)CCC2)C3c2ccccn2)c1 (stereo unspecified),inactive,
Oc1c(Cl)cc(Cl)c2cccnc12,inactive,
COc1ccc(CNC(=O)C2CCN(C(=O)c3cnn(-c4ccccc4)c3-n3cccc3)CC2)cc1,"inconclusive: 11.2 µM [activator, partial curve, poor fit]",
Cc1cccc(-n2cnc(C(=O)Nc3cccnc3)c2)n1,"inconclusive: 2.51 µM [activator, partial curve, poor fit]",
CCNC(=S)N/N=C(\C)c1ccc2ccccc2c1OC(F)F,"inconclusive: 8.91 µM [activator, partial curve]",
Clc1ccc(-n2c(SCc3cccc4ccccc34)nnc2-c2ccco2)cc1,"inconclusive: 15.8 µM [activator, partial curve, poor fit]",
Cc1c(C(=O)NCc2ccc3c(c2)OCCO3)sc(=O)n1Cc1ccc2c(c1)OCO2,"inconclusive: 50.1 µM [activator, partial curve, poor fit]",
CN(C(=O)c1cccc(NC(=O)Cc2ccc(NC(=O)C3CCN(C(=O)CCc4ccccc4)CC3)cc2)c1)C1CCCCC1,"inconclusive: 15.8 µM [activator, partial curve, poor fit]",
COC(=O)CCC(=O)OC1(C)C(=O)C2=CN(C3CC3)C(c3ccc(OC)cc3)=CC2=C(Br)C1=O (stereo unspecified),"inconclusive: 31.6 µM [activator, single point]",
CCOC(=O)N1CCN(C(=O)c2cc3c(s2)-c2c(C)cccc2OC3)CC1,"inconclusive: 11.2 µM [activator, partial curve, poor fit]",
Cn1nccc1-c1ccc(C(=O)NCc2ccc(Cl)cc2)c2occc12,"inconclusive: 31.6 µM [activator, single point]",
CCOc1ccc2c(c1)c(=O)c(C(=O)c1ccccc1)cn2Cc1ccccc1F,inactive,
O=C(N/N=C/C(Cl)=C/c1ccc([N+](=O)[O-])cc1)C(=O)Nc1cccc(C(=O)O)c1,"inconclusive: 50.1 µM [activator, single point]",
CN1C(=O)Cc2cc(S(=O)(=O)CCC(=O)Nc3ccc(Cl)cc3)ccc21,"inconclusive: 25.1 µM [activator, partial curve, poor fit]",
